Data taken from PMC4336329 (PLoS ONE, 2015).
About 2,200 (0.71%) of roughly 310,000 compounds showed an effect of 50% or more. The effect is printed as a negative number. This is one part of the list.

Target: human ether-à-go-go-related gene (hERG) potassium channel (human, UniProt Q12809)
Experiment: primary screen, population patch clamp on CHO cells stably expressing hERG

Chain of human ether-à-go-go-related gene (hERG) potassium channel (Q12809 whole entry, looked up): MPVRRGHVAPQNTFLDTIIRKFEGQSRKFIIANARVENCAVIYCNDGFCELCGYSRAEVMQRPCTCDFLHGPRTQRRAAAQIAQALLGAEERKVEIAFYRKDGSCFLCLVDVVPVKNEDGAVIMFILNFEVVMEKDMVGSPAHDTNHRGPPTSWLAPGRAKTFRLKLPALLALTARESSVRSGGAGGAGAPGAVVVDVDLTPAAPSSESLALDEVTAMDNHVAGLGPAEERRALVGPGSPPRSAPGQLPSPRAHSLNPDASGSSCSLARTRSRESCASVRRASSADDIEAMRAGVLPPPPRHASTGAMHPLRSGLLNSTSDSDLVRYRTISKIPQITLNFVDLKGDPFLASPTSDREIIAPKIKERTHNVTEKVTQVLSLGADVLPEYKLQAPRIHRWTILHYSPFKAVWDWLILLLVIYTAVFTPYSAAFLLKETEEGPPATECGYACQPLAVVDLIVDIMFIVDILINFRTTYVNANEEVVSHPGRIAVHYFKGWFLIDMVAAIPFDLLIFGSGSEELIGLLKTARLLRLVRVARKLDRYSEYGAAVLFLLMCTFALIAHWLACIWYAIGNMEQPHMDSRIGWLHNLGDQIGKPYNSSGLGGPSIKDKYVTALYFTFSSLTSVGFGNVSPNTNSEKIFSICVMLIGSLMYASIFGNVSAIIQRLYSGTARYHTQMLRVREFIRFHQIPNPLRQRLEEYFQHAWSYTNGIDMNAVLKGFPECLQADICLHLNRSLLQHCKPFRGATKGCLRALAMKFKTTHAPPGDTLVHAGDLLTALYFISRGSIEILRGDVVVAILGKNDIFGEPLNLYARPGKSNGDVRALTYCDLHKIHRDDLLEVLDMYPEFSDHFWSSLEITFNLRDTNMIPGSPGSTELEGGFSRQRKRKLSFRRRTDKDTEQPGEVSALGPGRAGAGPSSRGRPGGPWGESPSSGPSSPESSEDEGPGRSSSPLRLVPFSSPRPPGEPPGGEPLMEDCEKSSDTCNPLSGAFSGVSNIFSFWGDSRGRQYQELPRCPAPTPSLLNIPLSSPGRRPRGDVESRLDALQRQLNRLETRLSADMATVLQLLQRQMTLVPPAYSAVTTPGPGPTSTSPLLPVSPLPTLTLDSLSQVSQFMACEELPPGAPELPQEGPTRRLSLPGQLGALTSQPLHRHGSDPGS

**Q.** For O=C1N/C(=C/c2cccn2-c2ccc(F)cc2)C(=O)N1Cc1ccccc1F, which “hERG current change (%, negative = inhibition) at 1uM” value is on record?
**A.** 16.7%

**Q.** Which “hERG current change (%, negative = inhibition) at 1uM” value does the source give for Cc1c(C(=O)NCCSCc2c(F)cccc2Cl)cnn1-c1ccc(Cl)cc1 here?
**A.** -17.8%

**Q.** Which “hERG current change (%, negative = inhibition) at 1uM” value does the source give for Cc1cccc(NC(=O)c2cc([N+](=O)[O-])ccc2N2CCN(C)CC2)c1 here?
**A.** -41.2%

**Q.** With CCCOc1ccc(/C=C/C(=O)OCC(=O)N(C)c2c(N)n(Cc3ccccc3)c(=O)[nH]c2=O)cc1OCC as the molecule, how does the “hERG current change (%, negative = inhibition) at 1uM” value read?
**A.** 17.8%

**Q.** With COc1ccccc1OCC(=O)Nc1ccc(S(=O)(=O)Nc2nc(C)cc(C)n2)cc1 as the molecule, how does the “hERG current change (%, negative = inhibition) at 1uM” value read?
**A.** 14%

**Q.** With CN[C@H](C)[C@H](O)c1ccccc1 as the molecule, how does the “hERG current change (%, negative = inhibition) at 1uM” value read?
**A.** 15.3%

**Q.** Which “hERG current change (%, negative = inhibition) at 1uM” value does the source give for N#C/C(=C\c1ccccn1)c1nc2ccccc2s1 here?
**A.** 13.8%

**Q.** With COc1ccc(CN2CCNC(=O)C2CC(=O)NCC2CCOCC2)c(F)c1 (stereo not drawn) as the molecule, how does the “hERG current change (%, negative = inhibition) at 1uM” value read?
**A.** 17.6%

**Q.** For Cc1ccc(-n2nc3c(=O)n(CC(=O)NC(C)CCc4ccccc4)nc(C)c3c2C)cc1 (stereo not drawn), which “hERG current change (%, negative = inhibition) at 1uM” value is on record?
**A.** 0.24%

**Q.** Which “hERG current change (%, negative = inhibition) at 1uM” value does the source give for COc1ccc(-n2nnc3c(=O)n(CC(=O)Nc4ccc5c(c4)OCCO5)cnc32)cc1OC here?
**A.** 7.77%

**Q.** For O=C1OC(CCl)CN1Cc1ccc([N+](=O)[O-])cc1 (stereo not drawn), which “hERG current change (%, negative = inhibition) at 1uM” value is on record?
**A.** -3.19%

**Q.** For COc1ccc(S(=O)(=O)N2CCC(C(=O)OCC(=O)c3ccccc3)CC2)cc1[N+](=O)[O-], which “hERG current change (%, negative = inhibition) at 1uM” value is on record?
**A.** 3.89%

**Q.** How did the “hERG current change (%, negative = inhibition) at 1uM” value turn out when Cc1ccc(NC2=C([N+](=O)[O-])CS(=O)(=O)C2)cc1 was run?
**A.** 1.77%

**Q.** With O=C(NC(=S)Nc1ccc(S(=O)(=O)Nc2nccs2)cc1)c1ccc(F)cc1 as the molecule, how does the “hERG current change (%, negative = inhibition) at 1uM” value read?
**A.** 18.6%

**Q.** CC(NC(=O)CNC(=O)C1O[C@@H]2OC(C)(C)O[C@@H]2[C@H]2OC(C)(C)O[C@@H]12)C(=O)O (stereo partly drawn) was tested. Which “hERG current change (%, negative = inhibition) at 1uM” value did it give?
**A.** 20.5%

**Q.** For COc1cccc(-c2nc(CS(=O)CC(=O)NCc3ccccc3Cl)c(C)o2)c1 (stereo not drawn), which “hERG current change (%, negative = inhibition) at 1uM” value is on record?
**A.** 3.14%

**Q.** Cc1cccc(C(=O)NC(Oc2ccccc2)C(Cl)(Cl)Cl)c1 (stereo not drawn) was tested. Which “hERG current change (%, negative = inhibition) at 1uM” value did it give?
**A.** 17.5%

**Q.** Which “hERG current change (%, negative = inhibition) at 1uM” value does the source give for CCOC(=O)c1ccc(NC(=S)N(CCCN2CCN(CC)CC2)Cc2ccco2)cc1 here?
**A.** -45.4%

**Q.** CCn1c(SCC(=O)NNC(=O)c2ccc(OC)cc2)nnc1C(C)C was tested. Which “hERG current change (%, negative = inhibition) at 1uM” value did it give?
**A.** 12.1%

**Q.** How did the “hERG current change (%, negative = inhibition) at 1uM” value turn out when CCOC(=O)N1CCN(c2nc3ccc(C(=O)c4ccccc4)cc3n3cnnc23)CC1 was run?
**A.** -3.26%

**Q.** Which “hERG current change (%, negative = inhibition) at 1uM” value does the source give for O=C(O)C12CC3CC(C1)CC(n1ncc(NCc4ccco4)c(Cl)c1=O)(C3)C2 here?
**A.** 6.89%

**Q.** With CCCC(=O)C1CCN(Cc2ccccc2)CC1 as the molecule, how does the “hERG current change (%, negative = inhibition) at 1uM” value read?
**A.** 4.46%

**Q.** How did the “hERG current change (%, negative = inhibition) at 1uM” value turn out when O=C(Nc1ccnc(-c2ccncc2)n1)c1ccc(Cl)cc1 was run?
**A.** 3.63%

**Q.** For Cc1sc2ncnc(SCC(=O)Nc3nc(-c4ccc(F)c(F)c4)cs3)c2c1C, which “hERG current change (%, negative = inhibition) at 1uM” value is on record?
**A.** 13.7%

**Q.** CN(C(=O)CN1CCN(c2ccc([N+](=O)[O-])cn2)CC1)c1ccccc1 was tested. Which “hERG current change (%, negative = inhibition) at 1uM” value did it give?
**A.** -22.4%

**Q.** For O=C(c1ccccc1Nc1ccc(SC(F)F)cc1)N1CCCCCC1, which “hERG current change (%, negative = inhibition) at 1uM” value is on record?
**A.** 5.63%

**Q.** How did the “hERG current change (%, negative = inhibition) at 1uM” value turn out when COC(=O)c1ccc(Cn2c(O)c(N=O)c3ccccc32)o1 was run?
**A.** 7.56%

**Q.** Which “hERG current change (%, negative = inhibition) at 1uM” value does the source give for CCNc1nc(Oc2ccc(C(=O)OC)cc2)nc(N2CCOCC2)n1 here?
**A.** 5.93%

**Q.** For O=C1/C(=C\c2cccnc2)SC(=S)N1C1CCS(=O)(=O)C1 (stereo not drawn), which “hERG current change (%, negative = inhibition) at 1uM” value is on record?
**A.** -0.667%

**Q.** CCn1c(/C=C/Nc2ccccc2)[n+](CC)c2ccc(C(=O)OCC(F)(F)F)cc21.[I-] was tested. Which “hERG current change (%, negative = inhibition) at 1uM” value did it give?
**A.** -90.5%

**Q.** Which “hERG current change (%, negative = inhibition) at 1uM” value does the source give for CC(=O)c1ccc(OCCCN2CCCCC2)cc1.O=C(O)C(=O)O here?
**A.** -7.59%

**Q.** Which “hERG current change (%, negative = inhibition) at 1uM” value does the source give for CCCc1nnc(-c2ccc(OC)cc2)o1 here?
**A.** 11.6%

**Q.** With O=C(NCCn1cccn1)C1CCC(=O)N(CCc2ccc(Cl)cc2)C1 (stereo not drawn) as the molecule, how does the “hERG current change (%, negative = inhibition) at 1uM” value read?
**A.** 10.4%

**Q.** With CC1Cc2ccccc2N1C(=O)Cn1c(=O)oc2cc(S(=O)(=O)NC3CCCC3)ccc21 (stereo not drawn) as the molecule, how does the “hERG current change (%, negative = inhibition) at 1uM” value read?
**A.** 4.85%

**Q.** With NC(=O)N/N=C/c1ccc(OCc2cccc(Cl)c2)cc1 as the molecule, how does the “hERG current change (%, negative = inhibition) at 1uM” value read?
**A.** 11.6%

**Q.** For O=[N+]([O-])c1ccc(N2CCOCC2)cc1NC(c1ccccc1)c1ccccc1, which “hERG current change (%, negative = inhibition) at 1uM” value is on record?
**A.** 14.9%

**Q.** CCCOc1ccc(N2C(=O)CC(N3CCC(O)(c4cccc(C(F)(F)F)c4)CC3)C2=O)cc1 (stereo not drawn) was tested. Which “hERG current change (%, negative = inhibition) at 1uM” value did it give?
**A.** 7.56%

**Q.** With O=C1CCc2ccccc2N1Cc1ccccc1 as the molecule, how does the “hERG current change (%, negative = inhibition) at 1uM” value read?
**A.** 9.52%

**Q.** Cc1cc(SCC(=O)OCC(=O)N(C)c2ccccc2)nc2ccccc12 was tested. Which “hERG current change (%, negative = inhibition) at 1uM” value did it give?
**A.** -7.23%

**Q.** Which “hERG current change (%, negative = inhibition) at 1uM” value does the source give for Cc1cccc(N2CCN(C(=O)c3cccs3)CC2)c1C here?
**A.** 3.85%

**Q.** O=C(CCc1ccccc1)NCC(c1ccco1)N1CCc2ccccc21 (stereo not drawn) was tested. Which “hERG current change (%, negative = inhibition) at 1uM” value did it give?
**A.** -13.8%

**Q.** For Cc1ccc(NC(=O)Cn2cnc3ccccc32)cc1C, which “hERG current change (%, negative = inhibition) at 1uM” value is on record?
**A.** 6.29%

**Q.** C#CCOC(=O)C(NC(=O)c1ccccc1)=C(C)C was tested. Which “hERG current change (%, negative = inhibition) at 1uM” value did it give?
**A.** 7.09%

**Q.** How did the “hERG current change (%, negative = inhibition) at 1uM” value turn out when O=C(/C=C/c1ccc2c(c1)OCO2)Nc1nc2ccc(F)cc2s1 was run?
**A.** 16.3%

**Q.** How did the “hERG current change (%, negative = inhibition) at 1uM” value turn out when CCCn1c(SCC(=O)c2c[nH]c3ccccc23)nnc1-c1ccncc1 was run?
**A.** 4.77%

**Q.** For CC(C)=CCc1c(O)cc(O)c2c(=O)c3c(CC=C(C)C)c(O)ccc3oc12, which “hERG current change (%, negative = inhibition) at 1uM” value is on record?
**A.** 15.1%

**Q.** With COc1ccc2nc(NC(=O)c3ccccc3F)sc2c1 as the molecule, how does the “hERG current change (%, negative = inhibition) at 1uM” value read?
**A.** 5.5%

**Q.** How did the “hERG current change (%, negative = inhibition) at 1uM” value turn out when CCOC(=O)C(=NCCCN(C)C)NNc1ccc(Br)cc1 was run?
**A.** 2.69%

**Q.** Which “hERG current change (%, negative = inhibition) at 1uM” value does the source give for Cl.O=C1c2cccc3cccc(c23)C(=O)N1CC1CCN(CC(O)COc2ccc3ccccc3c2)CC1 (stereo not drawn) here?
**A.** -14.5%

**Q.** COc1ccc(C(C(=O)NC2CCCC2)N(C(=O)c2ccco2)c2cc3c(cc2C(C)=O)OCO3)cc1OC (stereo not drawn) was tested. Which “hERG current change (%, negative = inhibition) at 1uM” value did it give?
**A.** 14.7%

**Q.** With COC(=O)c1ccc(Cl)c(NC(=O)CSc2nnc(-c3ccncc3)o2)c1 as the molecule, how does the “hERG current change (%, negative = inhibition) at 1uM” value read?
**A.** 9.92%

**Q.** Which “hERG current change (%, negative = inhibition) at 1uM” value does the source give for CSc1ccccc1NC(=O)COC(=O)c1ccccc1O here?
**A.** 4.55%

**Q.** For O=C(CSc1nnc(Cc2cccs2)n1C1CCCCC1)N1CCCc2ccccc21, which “hERG current change (%, negative = inhibition) at 1uM” value is on record?
**A.** 24.3%

**Q.** For COc1cc(OC)cc(-c2c(C#Cc3ccsc3)c3cc(-c4cnc(OC)nc4)ccc3n2C)c1, which “hERG current change (%, negative = inhibition) at 1uM” value is on record?
**A.** 11.4%
